# According to PubChem BioAssay AID1745853 (National Center for Advancing Translational Sciences (NCATS), 2022):
# Where “and” joins values, the source holds several entries; their conditions need not be identical. Equal entries are not always repeated. Some of the results follow. Shown are side measurements of this screen, not its main read-out; they come without a call.
# Key:
# Assay in all cases: Primary Screen for Target Class Profiling of Small Molecule Inhibitors of Methyltransferases
# [1] = molecular target: Glycine N-methyltransferase (Homo sapiens) (UniProt Q14749); conditions: purified enzyme, MTase-Glo SAH luminescence; measured here: GNMT inhibition; at 40 µM; stronger effect = lower value
# Method in brief: (§1)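 Each enzyme was reacted with SAM and its substrate, with compounds tested once at 40 uM; SAH formed was read by MTase-Glo luminescence.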
# [2] = molecular target: Guanidinoacetate N-methyltransferase (Homo sapiens) (UniProt Q14353); conditions: purified enzyme, MTase-Glo SAH luminescence; measured here: GAMT inhibition; at 40 µM; stronger effect = lower value
# Method in brief: as §1
# [3] = molecular target: Histamine N-methyltransferase (Homo sapiens) (UniProt P50135); conditions: purified enzyme, MTase-Glo SAH luminescence; measured here: HNMT inhibition; at 40 µM; stronger effect = lower value
# Method in brief: as §1
# [4] = molecular target: Nicotinamide N-methyltransferase (Homo sapiens) (UniProt P40261); conditions: purified enzyme, MTase-Glo SAH luminescence; measured here: NNMT inhibition; at 40 µM; stronger effect = lower value
# Method in brief: as §1
# [5] = molecular target: Phenylethanolamine N-methyltransferase (Homo sapiens) (UniProt P11086); conditions: purified enzyme, MTase-Glo SAH luminescence; measured here: PNMT inhibition; at 40 µM; stronger effect = lower value
# Method in brief: as §1
# % is set by controls: 0 for no effect and ±100 for the full control effect.
SMILES,"activity change, negative = inhibition [1]","activity change, negative = inhibition [2]","activity change, negative = inhibition [3]","activity change, negative = inhibition [4]","activity change, negative = inhibition [5]"
CC1(C(=O)NC2CCCC2)Cn2c(ccc2-c2ccccc2)C(=O)N1CCc1ccc(Cl)cc1 (centres undefined),1.25%,0%,3.17%,-5.89%,1.28%
O=C(CCc1ccc2c(c1)CN(C(=O)C1CC1)CCO2)NC1CCS(=O)(=O)C1 (centres undefined),0.852%,3.32%,-0.803%,-1.89%,13.4%
COC(=O)C1=COC(O[C@@H]2O[C@H](CO)[C@@H](O)[C@H](O)[C@H]2O)[C@@H]2[C@@](C)(O)[C@@H](OC(=O)/C=C/c3ccccc3)C[C@]12O (some centres undefined),4.99%,6.77%,12.1%,-6.85%,7.1%
CNC(=O)c1ccccc1Nc1nc(Nc2ccc3c(c2OC)CCC[C@H](N2CCN(CCO)CC2)C3)ncc1Cl,,12.2% and 7.9%,,-20.7% and -28.7%,-7.7% and -15.1%
COCCC1(C(=O)O)CCCN(Cc2cn[nH]c2C2CCCCC2)C1 (centres undefined),-1.34%,-4%,-0.509%,-4.02%,-2.03%
CCOc1ccccc1CN1C(=O)c2cc3oc(C)cc3n2CC1(C)C(=O)NC1CCCCCCC1 (centres undefined),-1.22%,3.47%,7.63%,-1.93%,1.93%
CC1(C(=O)NC2CCCCCCC2)Cn2c(cc3occc32)C(=O)N1CCc1ccccc1 (centres undefined),-7.84%,7.71%,-4.71%,-7.71%,-4.2%
Cc1nc([C@@H]2CN(C(=O)CCc3c(C)noc3C)C[C@H]2C(N)=O)n[nH]1,-3.74%,-6.48%,-2.35%,-16%,-3.12%
Cc1ccc(N2C(=O)c3ccc(-c4ccco4)n3CC2(C)C(=O)NCc2ccc(Cl)cc2)cc1 (centres undefined),-19.5%,0.769%,-6.94%,-10.8%,-4.5%
CC1(C(=O)NCc2ccccc2)Cn2nc(-c3ccccc3)cc2C(=O)N1CCC1=CCCCC1 (centres undefined),4.05%,2.92%,5.52%,1.53%,-0.757%
CCc1cncnc1N1CCN(Cc2nc3ccc(C(F)(F)F)cc3[nH]2)CC1,-13.5% and -4.21%,1.74% and -3.46%,-4.42% and 1.94%,-27.7% and -48.3%,-25.7% and -36.3%
Cc1cc2[nH]c(=O)[nH]c2cc1S(=O)(=O)N1CCN(c2cccc(C)c2C)CC1,8.69%,1.39%,6.58%,-5.85%,4.57%
CCOC(=O)C1CCN(S(=O)(=O)c2cc3[nH]c(=O)[nH]c3cc2C)CC1,-4.31%,3.11%,1.62%,-3.82%,-7.72%
Oc1ccc(/C=C/c2ccc(/C=C/c3ccc(O)cc3)c(Br)c2)cc1,-18.6%,1.57%,-9.54%,-11.4%,0.253%
CCc1cc2c(=O)c(-c3nc4ccccc4s3)coc2c(CN2CCCCC2)c1O,-6.77%,-7.93%,-0.842%,-19.1%,-3.93%
COc1ccccc1NC(=O)N1C[C@@H]2C[C@H](C1)c1c(/C=C/c3ccc(Cl)cc3)ccc(=O)n1C2,-4.59%,-9.7%,-2.57%,-11.8%,-6.99%
CC1(C(=O)NC2CCCCCCC2)Cn2c(cc3occc32)C(=O)N1CCCN1CCCC1 (centres undefined),2.69%,3.73%,2.63%,-0.055%,0.413%
COc1cccc(N2C(=O)NC(=NC3CCCCC3)C23CCCN(Cc2ccsc2)C3)c1 (centres undefined),-12%,-1.6%,-11.2%,-31.7%,-7.17%
CC(C)CCNC(=O)C1(C)Cn2c(cc3ccccc32)C(=O)N1CCc1cccs1 (centres undefined),6.67%,0%,5.03%,4.15%,0.475%
CC12CC34CC(O)C5C(CO)(CO)CC(=O)CC5(C)C3CC1C2C4 (centres undefined),-0.374%,5.65%,7.92%,-15.4%,1.55%

SMILES,"activity change, negative = inhibition [1]","activity change, negative = inhibition [2]","activity change, negative = inhibition [3]","activity change, negative = inhibition [4]","activity change, negative = inhibition [5]"
COC(=O)CC1CCN(C(=O)C2CC(=O)N(c3n[nH]c4cccc(F)c34)C2)CC1 (centres undefined),-2.74%,0.163%,1.26%,0.623%,1.69%
Cn1c(=O)c2ccc(C(=O)NC3CCCCC3)cc2n2c(=O)n(Cc3ccccc3Cl)nc12,2.88%,0%,9.36%,7.25%,5.77%
CCCC1CCC(c2ccc(C(=O)COC(=O)C(Cc3c[nH]c4ccccc34)NC(=O)c3ccc(Cl)cc3)cc2)CC1 (centres undefined),-0.525%,2.66%,-10.2%,-17.5%,-6.36%
C=CCn1cc(CN2CCC(Oc3ccc4ccccc4c3)(C(=O)O)CC2)cn1,-4.58%,2.61%,2%,2.46%,2.82%
Cn1c(=O)n(C)c2cc(S(=O)(=O)NCc3ccc(F)cc3)ccc21,9.96%,0%,7.66%,-2.7%,0.345%
Cc1ccc(-c2cccc(CN3C4CCC3CN(C(C)C)C4)c2)c(C)c1,-2.67%,-0.647%,-13.4%,-6.07%,-3.13%
CC(C)Oc1ccc(CN2C(=O)c3cc4sccc4n3CC2(C)C(=O)NC2CCCCC2)cc1 (centres undefined),-2.37%,0%,1.92%,0.02%,0.829%
COc1cc(Cl)c(NS(=O)(=O)c2ccc3c(c2)NC(=O)CC(=O)N3)c(OC)c1,-10.4%,3.13%,-4.59%,-8.85%,-9.97%
Cc1nc2ccc(C(=O)NCc3cc4n(n3)CCN(C(=O)N(C)C)C4)cc2o1,-2.6%,-0.184%,0.1%,1.02%,-10%
CCOC(=O)C1(Cc2ccccc2)CCNCC1,-0.04%,-1.38%,-1.08%,-4.88%,-3.39%
O=C(NCc1ccccn1)C1CCN(c2cc(C3CC(O)C3)ncn2)CC1 (centres undefined),-2.71%,-0.799%,1.03%,1.91%,4.6%
Cc1cc(F)ccc1NC(=O)CCC1CCCN(Cc2cn[nH]c2-c2cccc(F)c2)C1 (centres undefined),-4.98%,-5.92%,-9.75%,-10.1%,-18.6%
O=C(Cn1c(=O)n2nc(-c3ccc(F)cc3)nc2c2ccccc21)N1CCN(c2ccccc2F)CC1,5.99%,0%,-1.29%,0.962%,2.05%
CCCC1c2cccn2CCN1C(=O)Nc1cc(C)cc(C)c1 (centres undefined),-0.3%,2.51%,-11.8%,2.35%,8.35%
CN[C@H]1CN(c2ccc3c(=O)c(C(=O)O)cn(-c4nccs4)c3n2)C[C@@H]1OC,,-8.75%,,-16.2%,-5.76%
CN(C)CCN1C(=O)c2cc3occc3n2CC1(C)C(=O)NC1CCCCCCC1 (centres undefined),0.645%,4.66%,-2.09%,3.56%,-2.47%
Cc1noc(C)c1S(=O)(=O)N1CCC2(CC1)CC(OCC1CC1)CCO2 (centres undefined),-8.24%,-7.3%,-4.5%,-7.96%,-4.31%
CC(C)CCn1c(=O)c2ccccc2n2c(=O)n(CC(=O)NCc3ccc(Cl)cc3)nc12,5.8%,2.79%,10.7%,6.01%,7.39%
CC1CCCCC1NC(=O)C1(C)Cn2c(ccc2-c2ccco2)C(=O)N1Cc1ccc(Cl)cc1 (centres undefined),1.28%,0%,2.35%,3.71%,-0.707%
CC1CCCCC1NC(=O)C1(C)Cn2c(cc3sccc32)C(=O)N1Cc1cccnc1 (centres undefined),2.48%,0.478%,3.65%,0.647%,-0.194%

SMILES,"activity change, negative = inhibition [1]","activity change, negative = inhibition [2]","activity change, negative = inhibition [3]","activity change, negative = inhibition [4]","activity change, negative = inhibition [5]"
Cc1ccc2nc(-c3ccc(Cl)c(NC(=O)c4ccc5c(c4)OCCO5)c3)oc2c1,,-2.88%,,-15.1%,-3.2%
COc1ccc(-c2cnc3c(-c4cccc5ncccc45)cnn3c2)cc1,3.02%,6.22%,5.19%,-7.97%,0.089%
CCCN1C(=O)c2nc3ccccc3n2CC1(C)C(=O)NC1CCCCC1 (centres undefined),6.5%,6.05%,8.95%,8.52%,2.41%
CCc1ccc(N2C(=O)c3ccccc3CC2(C)C(=O)NCc2ccccc2)cc1 (centres undefined),-1.64%,2.06%,-6.89%,-10.2%,-9%
N[C@@]1(C(=O)O)CC[C@H]2[C@H](C(=O)O)[C@H]21,0.913%,9.22%,3.24%,-11.1%,-4.78%
Cc1cc2c(cc3n2CC(C)(C(=O)NC2CCCCCC2)N(CCCN2CCOCC2)C3=O)o1 (centres undefined),1.81%,0.266%,3.92%,1.51%,-0.582%
COc1ccccc1CNC(=O)C1(C)Cn2cnc(C(=O)NCc3ccc(F)cc3)c2C(=O)N1C1CC1 (centres undefined),3.48%,0%,11.7%,1.97%,9.18%
CCn1c(=O)c2ccnn2c2ccc(C(=O)NCc3ccc(N4CCOCC4)cc3)cc21,-14.8%,-9.65%,-8.02%,-29.2%,-14.6%
CN[C@H](CC(C)C)C(=O)N[C@H]1C(=O)N[C@@H](CC(N)=O)C(=O)N[C@H]2C(=O)N[C@H]3C(=O)N[C@H](C(=O)N[C@H](C(=O)O)c4cc(O)cc(O)c4-c4cc3ccc4O)[C@H](O)c3ccc(c(Cl)c3)Oc3cc2cc(c3O[C@@H]2O[C@H](CO)[C@@H](O)[C@H](O)[C@H]2O[C@H]2C[C@](C)(N)[C@H](O)[C@H](C)O2)Oc2ccc(cc2Cl)[C@H]1O,-3.84%,4.06%,1.39%,-4.56%,6.83%
NC(=O)C1CCN(C(=O)CCCc2nnc3n4nc(-c5ccccc5)nc4c4ccccc4n23)CC1,-1.7%,0%,7.88%,11.5%,4.22%
C=Cc1ccc(CSc2nnc3n(CCC)c(=O)c4cc(Cl)ccc4n23)cc1,-24.9%,-0.244%,-1.76%,-16%,-4.67%
COCCCN1C(=O)c2nc3ccccc3n2CC1(C)C(=O)NC1CCCCC1C (centres undefined),6.9%,0%,9.75%,15.5%,3.17%
COc1c(C)cnc(Cn2cc(C#CCC(C)(C)O)c3c(Cl)nc(N)nc32)c1C,-25.3%,-7.86%,3.34%,-21.5%,-3.6%
COc1cc2ncnc(Oc3cccc(NC(=O)Nc4cc(C(C)(C)C(F)(F)F)on4)c3)c2cc1OC,4.49%,19.3%,12.2%,-24%,9.11%
O=C(COc1ccc(Cl)cc1)NC1CCC(NC(=O)COc2ccc(Cl)cc2)CC1 (centres undefined),0.511%,-6.32%,-5.33%,-16.9%,-3.87%
CCc1ccc(CNC(=O)CCn2ccc3cc(S(=O)(=O)N4CCCCC4)ccc32)cc1,6.69%,2.5%,5.14%,3.24%,3.38%
COc1ccc(-c2n[nH]c3c2CC(=O)N(c2ccccc2)C3)cn1,-10.7%,-14.3%,-6.45%,-21.2%,-14.6%
CC1(C(=O)NC2CCCCCC2)Cn2nc(-c3ccco3)cc2C(=O)N1Cc1cccc(Cl)c1 (centres undefined),-2.15%,0%,1.23%,-2.14%,-2.5%
